Laboratory results published in PMC5700166.
The entries are a selection whose mix differs from that of the whole data set. The list includes weakly bound sequences.

How the values were obtained:
Assay in all cases: protein-binding microarray (PBM)
Details in all cases: PBM: ~300 nM protein, 6 mM HEPES pH 7.8, 80 mM KCl, 0.5 mM EDTA, 0.5 mM EGTA, 6% glycerol, 35 ng/ul poly-dIdC, 1% milk, 1 h, room temperature; Ap Aiptasia and Nv Nematostella (sea anemones) / Co Capsaspora / Aq Amphimedon (sponge) / Dm Drosophila / Hu human; RHD is the Rel homology domain; high values mean tight binding; most listed sequences are background and not binding sites; double strand, one strand shown
GST-Ap-NF-kB RHD = target: T1, GST-Ap-NF-kB RHD (UniProt A0A913YAJ5)
T1 sequence: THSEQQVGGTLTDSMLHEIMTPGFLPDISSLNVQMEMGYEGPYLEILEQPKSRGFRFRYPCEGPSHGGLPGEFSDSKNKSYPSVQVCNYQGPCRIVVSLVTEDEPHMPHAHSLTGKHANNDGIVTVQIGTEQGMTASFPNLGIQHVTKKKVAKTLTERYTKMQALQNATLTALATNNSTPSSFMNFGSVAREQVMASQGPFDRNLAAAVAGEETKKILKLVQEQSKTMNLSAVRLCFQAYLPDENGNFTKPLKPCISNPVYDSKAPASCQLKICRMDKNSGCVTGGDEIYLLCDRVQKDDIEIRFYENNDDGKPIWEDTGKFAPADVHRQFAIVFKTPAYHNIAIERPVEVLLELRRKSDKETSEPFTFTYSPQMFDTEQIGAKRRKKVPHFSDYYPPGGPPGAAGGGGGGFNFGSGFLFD

[1] = target: T2, GST-Nv-NF-kB (Cys allele) (UniProt E5G601)
T2 sequence: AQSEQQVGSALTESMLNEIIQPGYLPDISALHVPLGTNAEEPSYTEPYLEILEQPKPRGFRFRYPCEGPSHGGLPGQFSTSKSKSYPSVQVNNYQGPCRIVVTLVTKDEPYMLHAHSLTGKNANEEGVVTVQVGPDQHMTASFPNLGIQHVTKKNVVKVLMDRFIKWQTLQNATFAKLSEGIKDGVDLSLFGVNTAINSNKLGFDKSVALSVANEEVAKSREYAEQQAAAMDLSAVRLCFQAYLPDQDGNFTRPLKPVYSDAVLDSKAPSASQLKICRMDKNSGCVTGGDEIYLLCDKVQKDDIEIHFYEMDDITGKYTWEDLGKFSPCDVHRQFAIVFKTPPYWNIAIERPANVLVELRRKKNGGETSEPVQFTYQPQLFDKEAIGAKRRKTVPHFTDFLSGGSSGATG

GST-Co-NF-kB = target: T3, GST-Co-NF-kB (UniProt F1ARL5)
T3 sequence: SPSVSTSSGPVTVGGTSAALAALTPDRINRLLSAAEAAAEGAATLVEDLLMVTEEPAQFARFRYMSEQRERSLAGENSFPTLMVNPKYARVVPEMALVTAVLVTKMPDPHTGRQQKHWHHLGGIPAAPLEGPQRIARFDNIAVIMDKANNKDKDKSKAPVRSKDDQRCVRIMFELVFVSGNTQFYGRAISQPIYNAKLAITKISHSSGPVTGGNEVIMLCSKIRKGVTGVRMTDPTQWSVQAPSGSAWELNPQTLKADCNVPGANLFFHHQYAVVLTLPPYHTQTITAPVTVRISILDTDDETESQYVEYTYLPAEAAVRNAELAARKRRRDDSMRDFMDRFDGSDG

GST-Dm-Relish = target: T4, GST-Dm-Relish (UniProt Q94527)
T4 sequence: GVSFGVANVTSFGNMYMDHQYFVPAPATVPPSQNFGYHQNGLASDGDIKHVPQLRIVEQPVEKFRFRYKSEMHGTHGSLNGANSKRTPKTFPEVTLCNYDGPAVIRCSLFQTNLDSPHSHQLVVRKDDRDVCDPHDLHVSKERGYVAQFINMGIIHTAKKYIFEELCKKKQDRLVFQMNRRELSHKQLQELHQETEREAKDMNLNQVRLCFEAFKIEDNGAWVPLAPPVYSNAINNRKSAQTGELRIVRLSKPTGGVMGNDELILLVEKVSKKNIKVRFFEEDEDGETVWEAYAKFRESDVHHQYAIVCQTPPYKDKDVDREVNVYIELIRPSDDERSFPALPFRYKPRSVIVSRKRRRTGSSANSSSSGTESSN

GST-Aq-NF-kB = target: T5, GST-Aq-NF-kB (UniProt A9Y5G7)
T5 sequence: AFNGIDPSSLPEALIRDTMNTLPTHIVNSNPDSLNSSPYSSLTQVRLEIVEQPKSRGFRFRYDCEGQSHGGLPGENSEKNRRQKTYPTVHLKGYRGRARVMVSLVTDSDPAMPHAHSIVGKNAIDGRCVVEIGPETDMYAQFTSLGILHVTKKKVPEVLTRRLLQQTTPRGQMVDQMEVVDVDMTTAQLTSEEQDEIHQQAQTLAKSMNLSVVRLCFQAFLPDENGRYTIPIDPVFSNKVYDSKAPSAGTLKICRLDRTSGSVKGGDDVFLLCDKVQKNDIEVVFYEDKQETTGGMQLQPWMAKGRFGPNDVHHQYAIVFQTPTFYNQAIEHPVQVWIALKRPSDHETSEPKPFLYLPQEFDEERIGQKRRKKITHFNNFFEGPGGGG

## CCGATTAACATCAAAATTCCCCTTGATGTTAATCGGGTCTTGATTCGCTTGACGCTGCTG
GST-Ap-NF-kB RHD
  binding signal: 10.1 z-score
[1]
  binding signal: 12.5 z-score
GST-Co-NF-kB
  binding signal: 7.63 z-score
GST-Dm-Relish
  binding signal: 9.78 z-score
GST-Aq-NF-kB
  binding signal: 9.63 z-score

## CCGATTAACATCAGAGCGTTTGCTGATGTTAATCGGGTCTTGATTCGCTTGACGCTGCTG
GST-Ap-NF-kB RHD
  binding signal: -0.494 z-score
[1]
  binding signal: -0.86 z-score
GST-Co-NF-kB
  binding signal: -0.667 z-score
GST-Dm-Relish
  binding signal: -0.83 z-score
GST-Aq-NF-kB
  binding signal: -0.586 z-score

## CCGATTAACATCAATTGACGATTTGATGTTAATCGGGTCTTGATTCGCTTGACGCTGCTG
GST-Ap-NF-kB RHD
  binding signal: -0.685 z-score
[1]
  binding signal: -0.365 z-score
GST-Co-NF-kB
  binding signal: -0.718 z-score
GST-Dm-Relish
  binding signal: -0.278 z-score
GST-Aq-NF-kB
  binding signal: -0.487 z-score

## CCGATTAACATCACGCTCAGTCCTGATGTTAATCGGGTCTTGATTCGCTTGACGCTGCTG
GST-Ap-NF-kB RHD
  binding signal: 0.104 z-score
[1]
  binding signal: -0.572 z-score
GST-Co-NF-kB
  binding signal: -0.93 z-score
GST-Dm-Relish
  binding signal: -0.247 z-score
GST-Aq-NF-kB
  binding signal: -0.247 z-score

## CCGATTAACATCAATATGTTTTATGATGTTAATCGGGTCTTGATTCGCTTGACGCTGCTG
GST-Ap-NF-kB RHD
  binding signal: -0.801 z-score
[1]
  binding signal: -0.194 z-score
GST-Co-NF-kB
  binding signal: 0.351 z-score
GST-Dm-Relish
  binding signal: 0.452 z-score
GST-Aq-NF-kB
  binding signal: -0.265 z-score

## CCGATTAACATCAATAGCGCTCATGATGTTAATCGGGTCTTGATTCGCTTGACGCTGCTG
GST-Ap-NF-kB RHD
  binding signal: -0.113 z-score
[1]
  binding signal: -0.212 z-score
GST-Co-NF-kB
  binding signal: -0.91 z-score
GST-Dm-Relish
  binding signal: -0.774 z-score
GST-Aq-NF-kB
  binding signal: -0.126 z-score

## CCGATTAACATCACCCACCGATTTGATGTTAATCGGGTCTTGATTCGCTTGACGCTGCTG
GST-Ap-NF-kB RHD
  binding signal: 1.07 z-score
[1]
  binding signal: -0.351 z-score
GST-Co-NF-kB
  binding signal: 0.72 z-score
GST-Dm-Relish
  binding signal: 0.918 z-score
GST-Aq-NF-kB
  binding signal: 0.633 z-score

## CCGATTAACATCAGGAAATTCGATGATGTTAATCGGGTCTTGATTCGCTTGACGCTGCTG
GST-Ap-NF-kB RHD
  binding signal: -0.0132 z-score
[1]
  binding signal: -0.2 z-score
GST-Co-NF-kB
  binding signal: 0.168 z-score
GST-Dm-Relish
  binding signal: -0.141 z-score
GST-Aq-NF-kB
  binding signal: 0.18 z-score

## CCGATTAACATCATCGAACGCCCTGATGTTAATCGGGTCTTGATTCGCTTGACGCTGCTG
GST-Ap-NF-kB RHD
  binding signal: -0.312 z-score
[1]
  binding signal: -0.444 z-score
GST-Co-NF-kB
  binding signal: -0.282 z-score
GST-Dm-Relish
  binding signal: -0.717 z-score
GST-Aq-NF-kB
  binding signal: -0.248 z-score
